Test results as given in paper PMC12040169 (PLOS Biology, 2025).
Where two headings read alike, the source gives them in different places. Some of the results follow.

Test system: T1, C. trachomatis L2/434/Bu expressing GFP (CTL2-GFP)
T1 construct: L2/434/Bu GFP intracellular growth in HeLa cells
Set-up: species or system HeLa; C. trachomatis total inclusion area by high-content imaging, normalised to DMSO
How it was run: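 Following bulk GFP and resorufin fluorescence reads, infected cells were fixed, Hoechst-stained and imaged on a high-content platform. Inclusion total area and number per well served as growth proxies; nuclei counts indicated host viability. MICs were derived as for the fluorescence assay.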

[1] = total inclusion area; 28.5 h, 10 µM; inhibitor

| Structure (SMILES) | % of control remaining [1] | % of control remaining (total inclusion area, 28.5 h, 10 µM, inhibitor) |
| --- | --- | --- |
| Cc1ccccc1CNC(=O)CCSc1ccc(Cl)cc1 [CBK264040] | 119.55 | – |
| O=C(Nc1ccccc1N1CCN(C(=O)c2ccccc2)CC1)c1cccnc1 [CBK269948] | 92.3141 | – |
| COc1ccc(Cl)cc1N(CC(=O)Nc1ccccc1C(=O)O)S(C)(=O)=O [CBK264137] | 105.405 | – |
| Cn1cncc1CN(CCc1ccccc1)Cc1ccncc1 [CBK282992] | 105.496 | – |
| CCOC(=O)c1[nH]c2ccccc2c1NC(=O)c1ccc(Cl)cc1Br [CBK160140] | 91.6523 | – |
| CC1=CC(C)C(C(=O)O)C(C(=O)N2CCN(C)CC2)C1 (stereo not shown) [CBK027311G] | – | 95.2068 |
| CC(=O)Nc1ccc(N2C(=O)CSC23C(=O)Nc2ccccc23)cc1 (stereo not shown) [CBK095916] | 104.658 | – |
| CCOC(=O)CSC1=NNC(C)(c2c(O)c3ccccc3n(CC)c2=O)N1 (stereo not shown) [CBK009370] | 104.946 | – |
| CCCCC(c1cccnc1)N(C)C(=O)c1ccnc(-n2cnnc2)c1 (stereo not shown) [CBK306786] | 97.4372 | – |
| CC(=O)c1cccc(NC(=O)Cn2nc(N3CCSCC3)ccc2=O)c1 [CBK307625] | 55.3447 | – |
| Cn1ncc(N2CCC(CNC(=O)COc3cccc(F)c3)C2)cc1=O (stereo not shown) [CBK307692] | 48.0091 | – |
| CN(C)CC(c1ccccc1)c1nnc2n1-c1ccc(S(C)(=O)=O)cc1C(c1ccccc1)=NC2 (stereo not shown) [CBK005856G] | 23.948 | – |
| Cc1nn(CCCC(=O)O)c(C)c1I [CBK269796] | 77.7378 | – |
| CCn1c(C)nc2cc(NC(=O)CC3CCCCO3)ccc21 (stereo not shown) [CBK281859] | 78.2534 | – |
| COc1ccc(CNC(C)C2COc3ccccc3O2)c(OC)c1 (stereo not shown) [CBK074283G] | 82.2981 | – |
| CCN(C#N)c1nc(NC)nc(OC)n1 [CBK265697] | 77.7111 | – |
| CCC1CCCCN1C(=O)c1ccc(OC)c(OC)c1 (stereo not shown) [CBK084527] | 94.5198 | – |
| CNC(=O)c1sc2ccccc2c1C1CCN(C(=O)Cc2coc3c(C)c(C)ccc23)C1 (stereo not shown) [CBK285876] | 107.214 | – |
| Cc1nn(CC(C)C)c(C)c1CCC(=O)NCc1nnc2ccccn12 [CBK305719] | 66.0993 | – |
| O=C(Nc1ccc(N2CCNCC2)c2ccccc12)c1ccccc1 [CBK028412T] | 81.3917 | – |
| Cc1c(Cc2ccccc2)c(-n2ccnc2C)n2c(nc3ccccc32)c1C#N [CBK263144] | 99.8754 | – |

| Structure (SMILES) | % of control remaining [1] | % of control remaining (total inclusion area, 28.5 h, 10 µM, inhibitor) |
| --- | --- | --- |
| COc1cc(/C=C2\S/C(=N/c3ccc(S(N)(=O)=O)cc3)NC2=O)c(Br)cc1O [CBK265711] | 147.813 | – |
| c1ccc(CN2CC[C@H](c3nnc(-c4cccnc4)o3)C2)cc1 [CBK289397] | 99.5646 | – |
| COc1ccccc1NC(=O)C(C)N1C(=O)c2ccccc2C1=O (stereo not shown) [CBK261043] | 94.6948 | – |
| COc1ccc(N2C(=O)CC(Nc3cc(C(=O)O)ccc3C)C2=O)c(OC)c1 (stereo not shown) [CBK296650] | 102.937 | – |
| COc1cccc(CC(=O)N2CCC(Cc3cccc(-c4cccs4)c3)(C(N)=O)CC2)c1 [CBK285738] | 112.082 | – |
| Cc1cc(C(C)(C)C)cc(C)c1S(=O)(=O)NCCSCCN [CBK013357] | 66.446 | – |
| O=C(Nc1ccccc1C(=O)O)c1ccc(-c2ccc(Cl)cc2Cl)o1 [CBK078453] | 65.1523 | – |
| Cn1ccnc1C1(O)CCN(C(=O)NCc2ccccc2)CC1 [CBK282276] | 87.4709 | – |
| COc1cc(CNCc2cccnc2)cc(Cl)c1OCc1cccs1 [CBK270026C] | 75.7306 | – |
| O=C1CCCC[C@]2(CN(Cc3ccccc3)C[C@H]2c2cccnc2)N1 [CBK283342] | 75.4917 | – |
| CC(C)(CNC(=O)CN1CCOCC1)NC(=O)OC(C)(C)C [CBK089350] | 53.2145 | – |
| O=C(Cn1ccnc1)NC(Cc1cccs1)c1nccs1 (stereo not shown) [CBK285092] | 103.869 | – |
| O=C(Nc1ccc(OCc2nc3ccccc3s2)cc1)c1cccc(I)c1 [CBK267843] | 80.6333 | – |
| Cc1cc(NS(=O)(=O)c2ccc(F)cc2)n(C)n1 [CBK051021] | 88.1362 | – |
| CCCC/N=C(\NS(=O)(=O)c1ccc(C)cc1)OCC [CBK022731] | 76.4043 | – |
| COc1ccc(-c2sc(C(=O)O)c(C)c2C#N)cc1 [CBK019922] | 63.2489 | – |
| Cc1ccc(OC(C)C(=O)Nc2cc(C(C)(C)C)on2)cc1C (stereo not shown) [CBK288251] | 85.9482 | – |
| Cc1ccc(-c2nnc(CNC(=O)Cc3ccccc3Cl)o2)s1 [CBK284648] | 99.3944 | – |
| CN(C)CCN(Cc1ccccc1)C(=O)NCc1ccc(C#N)cc1 [CBK155097] | 103.422 | – |
| O=C(Cc1cc(C(=O)O)c2ccccc2n1)Nc1ccccc1 [CBK268227] | 115.293 | – |
| COC[C@@H]1CCCN1S(=O)(=O)c1ccc(Cl)c(Cl)c1 [CBK044313] | 73.3444 | – |

| Structure (SMILES) | % of control remaining [1] | % of control remaining (total inclusion area, 28.5 h, 10 µM, inhibitor) |
| --- | --- | --- |
| O=C(C1CCCN(S(=O)(=O)c2ccc(F)cc2)C1)N(Cc1ccccc1)Cc1ccccc1 (stereo not shown) [CBK267652] | 66.5954 | – |
| O=C(Cn1cncn1)N[C@H]1C2CCCCC2[C@@H]1c1ccccc1 (stereo partly shown) [CBK283011] | 103.616 | – |
| CSCCCNC(=O)N1CCCC(C(=O)O)C1 (stereo not shown) [CBK161343] | 41.5532 | – |
| CC(C)Cn1c(CN2CCOCC2)nc2c1c(=O)n(C)c(=O)n2C [CBK305913] | 80.4417 | – |
| Cn1c(=O)c2c(ncn2CC(=O)Nc2ccc(C#N)cc2)n(C)c1=O [CBK133466] | 85.1477 | – |
| CCCc1oc(C(=O)O)cc1CN1CCCCC1 [CBK267973C] | 86.1298 | – |
| Cc1nc2nc(N)nn2c(C)c1CCC(=O)OCc1cccc(C#N)c1 [CBK306083] | 49.5156 | – |
| Cc1c(Cl)cccc1S(=O)(=O)Nc1nc(C(C)Sc2nccn2C)ns1 (stereo not shown) [CBK200052] | 105.662 | – |
| CCc1nc2cccnc2n1CCNC(=O)c1cccs1 [CBK283638] | 77.7774 | – |
| O=C(NC(c1ccc(Cl)cc1)c1cccnc1)C1CCN(C(=O)C2CC2)CC1 (stereo not shown) [CBK059686] | 98.7401 | – |
| Cc1nc2c(c(=O)[nH]1)CC[C@@H]1CN(C(=O)c3cc(F)cc(F)c3)C[C@H]21 [CBK284418] | 90.3373 | – |
| Cc1noc(-c2ccc3c(c2O)OCCO3)c1-c1ccc(Cl)cc1 [CBK018086] | 0.157 | – |
| CCc1nn(CC(=O)N2CCCCC2)c(=O)c2cc3occc3n12 [CBK283674] | 78.8783 | – |
| Cc1ccc(C(C)C)c(OCCSc2nc3c(N)ncnc3[nH]2)c1 [CBK266941] | 109.606 | – |
| CCOC(=O)Cc1csc(NS(=O)(=O)c2cc(Cl)c(Cl)s2)n1 [CBK000847] | 105.395 | – |
| O=C(c1ccc(F)cc1)c1cn(CCO)c2c(Cl)nccc12 [CBK285129] | 104.054 | – |
| CCOC(=O)C1CCN(Cc2c(O)c3ccccc3oc2=O)CC1 [CBK266035] | 137.975 | – |
| Cc1sc2c(c1C)c(=O)nc1scc(CC(=O)NCCO)n12 [CBK266726] | 100.25 | – |
| COc1nccnc1-c1cnn(C)c1 [CBK107069] | 95.5304 | – |
| Cc1nc(CCNCc2c(C)nn(C)c2N2CCOCC2)cs1 [CBK304054] | 48.8551 | – |
| COc1cccc(-c2nc(SCC(=O)Nc3ccc([N+](=O)[O-])cc3)[nH]c(=O)c2C#N)c1 [CBK264912] | 127.029 | – |

| Structure (SMILES) | % of control remaining [1] | % of control remaining (total inclusion area, 28.5 h, 10 µM, inhibitor) |
| --- | --- | --- |
| CCOc1ccc(C(=O)NC(=S)Nc2ncccc2C)cc1[N+](=O)[O-] [CBK264128] | 101.804 | – |
| Cc1ccc(C(=O)C2=C(O)C(=O)N(CCCN3CCOCC3)C2c2ccccn2)o1 (stereo not shown) [CBK269187] | 102.752 | – |
| CC(=O)Oc1cccc(C(=O)O)c1C [CBK038235] | 33.0725 | – |
| CC(C)C(=O)N1CCCC(n2c(=O)oc3ccc(Cl)cc32)C1 (stereo not shown) [CBK282890] | 100.288 | – |
| Cc1ccc(NC(=O)CSc2cc(-n3nc(C)cc3C)ncn2)cc1 [CBK287820] | 78.2348 | – |
| O=C(O)Cc1ccc(OCC(=O)NCCCSc2ccccc2)cc1 [CBK296630] | 100.627 | – |
| O=C(O)/C=C/c1cn([C@H]2C[C@@H](O)[C@@H](CO)O2)c(=O)[nH]c1=O [CBK201174] | 120.292 | – |
| Nc1c(Cc2c(Cl)cccc2Cl)c(=O)n2n1CCCC2 [CBK089337] | 98.4228 | – |
| Cc1cc(OCC(=O)N2CCCc3c(cnn3C)C2)ccc1Cl [CBK285277] | 102.009 | – |
| COc1ccc(C(=O)NCC2(c3ccc(OC)c(OC)c3)CCCCC2)c(OC)c1 [CBK067049] | 91.4092 | – |
| Cn1c(=O)c2c(ncn2CCCn2cnc3c2c(=O)n(C)c(=O)n3C)n(C)c1=O [CBK268933] | 118.401 | – |
| Cc1cn2c3c(=O)n(CCN4CCCCC4)c(=O)n(C)c3nc2n1CC1CCCO1 (stereo not shown) [CBK269820] | 98.0211 | – |
| O=C(NCc1cccnc1)c1cc2c(ccc3ccccc32)oc1=O [CBK270195] | 96.8342 | – |
| COc1ccc(C(CC(=O)O)C(=O)O)cc1OC (stereo not shown) [CBK261943] | 86.5612 | – |
| O=C(CC1C(=O)Nc2ncnn21)Nc1ccccc1 (stereo not shown) [CBK288071] | 95.6754 | – |
| CCCOC1CCCN(C(=O)c2cc(Cl)c[nH]2)C1 (stereo not shown) [CBK304802] | 87.7473 | – |
| CC(NC(=O)C1(Cn2ccnc2)CC1)c1nncn1C(C)C (stereo not shown) [CBK306682] | 84.4354 | – |
| COc1ccc(S(=O)(=O)Nc2ccc(S(=O)(=O)Nc3nccs3)cc2)c([N+](=O)[O-])c1 [CBK266801] | 4.26 | – |
| COc1ccc(Cn2nc(NC(C)=O)c3ccccc32)cc1 [CBK048200] | 100.751 | – |
